# Laboratory results reported in publication PMC4336329 (PLoS ONE, 2015).
# About 14,000 (4.5%) of roughly 310,000 compounds showed an effect of 50% or more. The effect is printed as a negative number. This is one part of the list.
# Target: human ether-à-go-go-related gene (hERG) potassium channel (human, UniProt Q12809)
# Experiment: primary screen, population patch clamp on CHO cells stably expressing hERG
# 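Also: peak tail current of the secondary pulse compared with the same well before compound.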
# human ether-à-go-go-related gene (hERG) potassium channel, sequence (Q12809 whole entry, looked up): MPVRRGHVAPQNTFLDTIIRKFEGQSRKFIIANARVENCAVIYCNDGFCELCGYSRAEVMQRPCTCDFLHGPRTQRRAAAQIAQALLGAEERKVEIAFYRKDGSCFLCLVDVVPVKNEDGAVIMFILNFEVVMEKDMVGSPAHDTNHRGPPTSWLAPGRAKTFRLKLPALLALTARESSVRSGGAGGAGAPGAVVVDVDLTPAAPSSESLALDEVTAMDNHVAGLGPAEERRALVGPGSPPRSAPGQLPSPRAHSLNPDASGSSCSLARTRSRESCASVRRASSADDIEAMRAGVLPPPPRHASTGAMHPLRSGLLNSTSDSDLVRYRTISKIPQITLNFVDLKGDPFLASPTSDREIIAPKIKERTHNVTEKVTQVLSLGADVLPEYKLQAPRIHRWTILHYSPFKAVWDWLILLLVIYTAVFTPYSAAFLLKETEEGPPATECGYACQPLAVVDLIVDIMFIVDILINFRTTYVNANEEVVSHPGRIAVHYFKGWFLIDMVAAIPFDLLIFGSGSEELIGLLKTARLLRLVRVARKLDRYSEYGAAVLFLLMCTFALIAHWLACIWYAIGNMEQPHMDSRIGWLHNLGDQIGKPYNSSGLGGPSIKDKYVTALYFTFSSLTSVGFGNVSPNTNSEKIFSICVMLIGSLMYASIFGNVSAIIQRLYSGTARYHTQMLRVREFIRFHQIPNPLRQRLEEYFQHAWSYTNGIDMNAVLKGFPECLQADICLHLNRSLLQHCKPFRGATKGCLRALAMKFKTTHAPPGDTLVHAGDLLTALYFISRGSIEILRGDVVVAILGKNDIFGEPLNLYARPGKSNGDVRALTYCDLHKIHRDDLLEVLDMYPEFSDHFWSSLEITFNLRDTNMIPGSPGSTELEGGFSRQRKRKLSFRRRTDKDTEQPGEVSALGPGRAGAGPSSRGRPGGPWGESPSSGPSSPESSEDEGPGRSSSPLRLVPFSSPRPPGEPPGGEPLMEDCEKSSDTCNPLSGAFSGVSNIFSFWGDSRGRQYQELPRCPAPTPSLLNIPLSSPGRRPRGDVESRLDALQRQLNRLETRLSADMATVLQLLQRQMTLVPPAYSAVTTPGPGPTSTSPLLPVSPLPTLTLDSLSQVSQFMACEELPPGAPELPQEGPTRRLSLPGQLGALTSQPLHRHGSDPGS
row,Structure (SMILES),"hERG current change (%, negative = inhibition) at 10uM"
1,CCOC(=O)N1CCN(c2c(NCCCN3CCCC(C)C3)c(=O)c2=O)CC1 (stereo not drawn),-8.23%
2,CCOc1ccc(CCNC(=O)CCCn2nc(C)c3c(C)n(-c4ccccc4)nc3c2=O)cc1,-10.5%
3,CCCC(=O)NC(=S)Nc1ccccc1F,17%
4,Cc1ccc(SCCC(=O)Nc2c(C)n(C)n(-c3ccccc3)c2=O)cc1,4.3%
5,CCc1ccc(S(=O)(=O)Nc2cccc(C3OCCCO3)c2)cc1,12.6%
6,O=C(c1noc2c1CSc1ccccc1-2)N1CCN(c2ccc(Cl)cc2)CC1,11.8%
7,CCN(CC)S(=O)(=O)c1cc(NS(=O)(=O)c2cccc(C(=O)O)c2)ccc1C,16.4%
8,CCCCOc1ccc(CN(C)c2ncnc(N)n2)cc1,4.92%
9,COc1cc2c(cc1OC)C(C(=O)N1CCN(c3ccccn3)CC1)C(c1cccs1)N(C)C2=O (stereo not drawn),-38%
10,CCS(=O)(=O)c1ccc(O)c(NC(=O)Nc2cccc3ccccc23)c1,-29.1%
11,CNC(=O)COc1ccc(Cl)c2cccnc12,-7.98%
12,CC(C)(C)C(=O)Nc1cc2c3c(c1)CCC(=O)N3CCC2,21.5%
13,Cc1cccc(NC(=O)CNC(=O)CN2C(=O)NC3(CCCc4ccccc43)C2=O)c1C (stereo not drawn),-12.5%
14,Cc1ccc([N+](=O)[O-])cc1S(=O)(=O)n1ccnc1C,1.89%
15,Cc1ccc(NC(=O)CN(C)CC(=O)N(C)Cc2ccccc2)cc1,-19.5%
16,Cn1nc(-c2ccccc2)cc1NC(=O)Nc1ccccc1F,22.4%
17,CC1CN(c2cc(=O)n(-c3cccc(Br)c3)c(=O)[nH]2)CC(C)O1 (stereo not drawn),-13.8%
18,Cc1ccc(S(=O)(=O)N[C@@H](Cc2ccccc2)C(=O)CCl)cc1,-33.3%
19,COc1ccc(Cl)cc1NC(=O)COC(=O)c1c(-c2ccccc2)noc1C,-2.53%
20,COc1ccc(C(=O)N/C(=C\c2ccccc2)C(=O)Nc2ccc(C(=O)O)cc2)cc1,9.63%
21,Nc1nc(SCC(=O)Nc2ccc([N+](=O)[O-])cc2)n[nH]1,-6.19%
22,CCOC(=O)c1nn(-c2ccc(C)cc2)c(=O)cc1OCC(=O)N1CCN(c2ccccc2)CC1,-51.9%

row,Structure (SMILES),"hERG current change (%, negative = inhibition) at 10uM"
1,N#Cc1ccc(CN(c2ccncc2)S(=O)(=O)c2ccccc2)cc1,-2.11%
2,Cc1noc(C)c1C(=O)OCC(=O)Nc1cc(S(=O)(=O)N2CCOCC2)ccc1Cl,-25%
3,O=C(O)C1C2C=CC(C2)C1C(=O)Nc1cccc(C(F)(F)F)c1 (stereo not drawn),8.95%
4,COc1ccccc1CNC(=O)C1CCCN(S(=O)(=O)c2c(C)[nH]c(=O)[nH]c2=O)C1 (stereo not drawn),2.87%
5,O=[N+]([O-])c1ccc(N2CCN(Cc3ccncc3)CC2)cc1,-64.8%
6,CCN(CCCNC(=O)CC1Oc2ccc(C)cc2NC1=O)Cc1ccccc1 (stereo not drawn),-61.5%
7,O=C(CSc1ccccc1)Nc1ccc(NC(=O)c2ccco2)cc1,-1.23%
8,CCOC(=O)c1cc(-c2cccs2)nc2c1c(C)nn2-c1ccccn1,17.2%
9,CCN1CCN(c2sc(S(C)(=O)=O)nc2S(=O)(=O)c2ccc(C)cc2)CC1,-10.9%
10,COc1ccccc1-n1cc(C(=O)NCC(=O)N2CCN(c3ccccn3)CC2)c2ccccc2c1=O,-37.8%
11,Cc1cc(C)n(-c2cccc(CN3CCC(CO)(Cc4ccccc4)CC3)c2)n1,-58.1%
12,CNC(=S)N1CCN(c2ccc([N+](=O)[O-])cc2)CC1,-65.1%
13,Cc1cc(-c2nnc(SCc3cccnc3)o2)no1,-2.49%
14,CCOC(=O)Cc1cnc(N)s1,4.64%
15,O=C(c1ccncc1)N1N=C(C2CCCCC2)CC1(O)C(F)(F)F (stereo not drawn),11.6%
16,O=C(CNC(=O)c1ccco1)N=Nc1c(O)[nH]c2ccc([N+](=O)[O-])cc12,14.5%
17,COc1ccc(/C=C/C(=O)O)cc1S(=O)(=O)NCc1ccco1,14%
18,CC(=O)Nc1ccc(S(=O)(=O)NCCC(=O)NNC(=O)c2ccncc2)cc1,17.8%
19,Cc1ccc(S(=O)(=O)NC(C)(C)CSc2ncccn2)cc1,-4.42%
20,COc1cc(C(=O)NCC(=O)N/N=C/c2ccccn2)cc(OC)c1OC,17.4%
21,CC(C)CN(Cc1c(O)ccc2c(=O)c(-c3ccccc3)coc12)CC(C)C.Cl,17%
22,CCOC(=O)c1c(NC(=O)C2C3CCC(O3)C2C(=O)O)sc(C)c1-c1ccc(C)cc1 (stereo not drawn),2.26%

row,Structure (SMILES),"hERG current change (%, negative = inhibition) at 10uM"
1,O=C(c1ccc(NC2=NC3CS(=O)(=O)CC3S2)cc1)N1CCN(c2ccc([N+](=O)[O-])cc2)CC1 (stereo not drawn),-4.75%
2,CCOC(=O)c1cc(S(=O)(=O)NCC2CCN(Cc3cccc(C)c3)CC2)cn1C,-7.77%
3,O=C(Nc1ccc(N2CCOCC2)cc1)c1ccc(COc2ccccc2)cc1,17.3%
4,O=C(O)C1=C(Nc2ccccc2)OCC1=O,14%
5,CCOc1cc(C(=O)NC(=S)Nc2nc(C)cc(C)n2)cc(OCC)c1OCC,0.578%
6,CC(=O)C1C(c2ccc(F)cc2)NC(=O)NC1(O)C(F)(F)F (stereo not drawn),-4.43%
7,CCOc1ccc(S(=O)(=O)Nc2ccc(C(=O)N3CCCC3)cc2)cc1C(N)=O,24.3%
8,CSc1ccc(-c2sc(Nc3cccc4ccccc34)n[n+]2-c2ccccc2)cc1.[Cl-],10.2%
9,COc1ccc(C(=O)Cn2nnc(-c3ccccc3F)n2)cc1,-14.6%
10,CC1CCCCN1C(=O)C(=O)c1cn(CC(=O)N2CCCCCC2)c2ccccc12 (stereo not drawn),13%
11,CCOc1ccc(Br)cc1S(=O)(=O)Nc1ccc(N2CCOCC2)cc1,-8.78%
12,CSc1sc(C)cc1/C=N/O,6.46%
13,CCN1C(=O)/C(=C\c2cccs2)C(C(=O)OC)=C1C,5.41%
14,Cc1ccc(N2C(=O)N(CC(=O)NC(N)=O)C(=O)C2C)cc1 (stereo not drawn),27%
15,COC(=O)C1=C(C(=O)OC)SC(=C2C(=S)C(C)(C)N(C(=O)CC(C)C)c3ccccc32)S1,-7.16%
16,O=[N+]([O-])c1ccc(NCCCNS(=O)(=O)c2ccccc2)c(Cl)c1,-14.3%
17,Nc1nc(CSCc2ccccc2)nc(N2CCOCC2)n1,-10.2%
18,O=C(Nc1ccccc1Cl)C1CC(=O)n2c(nc3ccccc32)N1 (stereo not drawn),24.7%
19,O=C(c1cc(C(=O)NCc2ccc(Cl)cc2)c(=O)n(Cc2ccc(Cl)cc2)c1)c1cc(F)ccc1O,9.94%
20,COc1ccc(C2C3=C(CCCC3=O)Nc3n[nH]c(C)c32)cc1OC (stereo not drawn),6.62%
21,O=C(NCc1cccs1)C1(S(=O)(=O)c2ccccc2)CC=CC1,-3.22%
22,Cc1cccc(OCc2ccc(C(=O)Nc3ccc(F)cc3)cc2)c1,11.6%

row,Structure (SMILES),"hERG current change (%, negative = inhibition) at 10uM"
1,CCOCCCNC(=S)NCCCNc1nc2cc3c(cc2cc1C#N)OCO3,-1.68%
2,COCCNC(=O)c1cn(CCOC)c(=O)c2c1c1ccccc1n2C,11.7%
3,C=CCOc1ccc(CN(C)C(=O)c2ccc(CNS(=O)(=O)c3ccc(C)c(C)c3)cc2)cc1,-2.09%
4,Cc1c(C(=O)OCC(=O)N2C(C)CCCC2C)oc2ccccc12 (stereo not drawn),19.6%
5,Cc1ccc(-c2csc3ncnc(Nc4ccc(N5CCOCC5)cc4)c23)cc1.Cl,-0.406%
6,Cc1ccc(Cn2c(=S)[nH]c3ccc(N4CCOCC4)cc3c2=O)o1,-41.5%
7,O=C(CCn1c(=O)oc2ccccc21)NCc1ccc2c(c1)OCO2,-11%
8,CCOc1cc(C(=O)O)cc(Cl)c1OC,16.3%
9,CC(=O)Nc1ccc(C(=O)N2CCN(C(=O)c3ccco3)CC2)cc1,-1.06%
10,O=c1c2ccc(Cl)cc2[nH]c(=S)n1CCC1=CCCCC1,14.6%
11,Cc1ccc(S(=O)(=O)N2CCCC(C(=O)NCc3ccccn3)C2)cc1 (stereo not drawn),-4.25%
12,Cc1ccc(-c2nc(SCC(=O)NCC3CCCO3)c(-c3ccc(C)cc3)[nH]2)cc1 (stereo not drawn),29.2%
13,O=C(C1=C(O)C(=O)N(CCN2CCOCC2)C1c1cccnc1)c1cc2ccccc2o1 (stereo not drawn),-5.17%
14,CC1(C)CC(NC(=O)COc2ccccc2Cl)CC(C)(C)N1,10.8%
15,CC(=O)c1ccc(Cc2ccccc2)cc1,-3.54%
16,COc1ccc(OC)c(NC(=O)CC2Oc3ccccc3NC2=O)c1 (stereo not drawn),19.4%
17,Cc1nnsc1C(=O)NNC(=O)c1ccc(C(F)(F)F)cc1,19.1%
18,COC(=O)c1c(C)[nH]c(C(=O)C(C)OC(=O)c2ccco2)c1C (stereo not drawn),11.7%
19,Cc1cccc(-c2nc(C)cc(=O)[nH]2)c1,14.5%
20,O=C1c2ccccc2NC(c2c(Cl)cccc2Cl)N1Cc1ccccc1 (stereo not drawn),7.98%
21,CC(=O)Oc1ccc2oc(=O)c3c(c2c1)CCCN3C(=O)CN1CCN(c2ncccn2)CC1,-7.91%
